Counter-ions that a name gives are not always drawn. ± gives the standard deviation of the averaged measurements. Over roughly 1,300 compounds, “normalised cell viability” has its median near 1; the lowest 2% begin near 0.15. The list shows a part of the results.
System: V-C8 + BRCA2 (BRCA2-proficient hamster cells)
Test: normalised cell viability (fraction of plate median); higher = more viable cells (less toxic)
Details: 5 µM
Procedure, shortened: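 Cell viability was measured with a resazurin assay, normalised to the plate median (modified robust per cent of sample) and averaged over triplicate wells. Hamster V-C8 cells lacking BRCA2 and V-C8 cells with BRCA2 restored were seeded in 96-well plates. After 24 h, library drugs from 10 mM DMSO stocks were added at a final 5 μM in 100 μl medium and left for 3 days (screen 1) or 6 days (screen 2), with solvent-only wells alongside.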

SMILES | normalised cell viability (treatment time: 3 days) | normalised cell viability (treatment time: 6 days)
CC(C(=O)O)c1ccc(-c2ccccc2)c(F)c1 (configuration not stated) [Flurbiprofen] | 0.994 ± 0.027 | 1.07 ± 0.038
CN(C)C(=O)C(CCN1CCC(O)(c2ccc(Cl)cc2)CC1)(c1ccccc1)c1ccccc1 [Loperamide hydrochloride] | 0.687 ± 0.041 | 0.67 ± 0.057
CC(C(=O)O)c1ccc2c(c1)[nH]c1ccc(Cl)cc12 (configuration not stated) [Carprofen] | 1.04 ± 0.11 | 1.04 ± 0.13
CCCCc1cc2ccccc2c(OCCN(C)C)n1 [Dimethisoquin hydrochloride] | 1.04 ± 0.022 | 1.07 ± 0.1
Cc1cccc(C)c1NC(=O)C(C)N (configuration not stated) [Tocainide hydrochloride] | 1.06 ± 0.027 | 0.996 ± 0.018
Cc1c(-c2ccccc2)oc2c(C(=O)OCCN3CCCCC3)cccc2c1=O [Flavoxate hydrochloride] | 0.969 ± 0.011 | 0.98 ± 0.014
CN[C@@H]1[C@@H](O[C@H]2O[C@H](CO)[C@@H](N)[C@H](O)[C@H]2O)OC2C[C@@H](N)[C@@H](O[C@H]3[C@H](O)[C@@H](O)[C@H](N)C[C@@H]3N)OC2[C@@H]1O (some centres not stated) [Apramycin] | 1.03 ± 0.019 | 1.11 ± 0.049
N[C@@H](C(=O)N[C@@H]1C(=O)N2C(C(=O)O)=C(Cl)CC[C@H]12)c1ccccc1 [Loracarbef] | 0.999 ± 0.14 | 1.05 ± 0.046
Cc1onc(-c2ccccc2Cl)c1C(=O)N[C@@H]1C(=O)N2[C@@H]1SC(C)(C)[C@@H]2C(=O)O [Cloxacillin sodium salt] | 0.987 ± 0.02 | 1.05 ± 0.092
C#Cc1cccc(Nc2ncnc3cc(OCCOC)c(OCCOC)cc23)c1 [Erlotinib] | 1.05 ± 0.016 | 0.915 ± 0.037
N#Cc1ccc(C2CCCc3cncn32)cc1 (configuration not stated) [Fadrozole hydrochloride] | 0.955 ± 0.11 | 0.949 ± 0.078
NS(=O)(=O)c1cc2c(cc1Cl)NC(C(Cl)Cl)NS2(=O)=O (configuration not stated) [Trichlormethiazide] | 0.985 ± 0.016 | 1.05 ± 0.043
CN[C@@H]1[C@H](O)[C@H](NC)[C@H]2O[C@@]3(O)C(=O)C[C@@H](C)O[C@H]3O[C@@H]2[C@H]1O [Spectinomycin dihydrochloride] | 1.06 ± 0.088 | 0.962 ± 0.049
COc1ccccc1Oc1c(NS(=O)(=O)c2ccc(C(C)(C)C)cc2)nc(-c2ncccn2)nc1OCCO [Bosentan] | 1.03 ± 0.098 | 1.06 ± 0.023
Nc1ccccc1S(N)(=O)=O [2-Aminobenzenesulfonamide] | 0.993 ± 0.013 | 1.03 ± 0.019
CN(C)CCC=C1c2ccccc2COc2ccccc21 [Doxepin hydrochloride] | 0.9783 ± 0.0094 | 1.06 ± 0.05
CC(C)[N+](C)(CCOC(=O)C1c2ccccc2Oc2ccccc21)C(C)C [Propantheline bromide] | 1.04 ± 0.011 | 0.94 ± 0.039
O=C(N[C@H](CO)[C@H](O)c1ccc([N+](=O)[O-])cc1)C(Cl)Cl [Chloramphenicol] | 1 ± 0.018 | 0.883 ± 0.074
CCC[C@@H]1C[C@@H](C(=O)N[C@@H]([C@H]2O[C@H](SC)[C@H](O)[C@@H](O)[C@H]2O)[C@H](C)Cl)N(C)C1 [Clindamycin hydrochloride] | 1.22 ± 0.034 | 1.1 ± 0.093
C=C1/C(=C\C=C2/CCC[C@]3(C)[C@@H]([C@H](C)CCCC(C)C)CC[C@@H]23)C[C@@H](O)C[C@@H]1O [Alfacalcidol] | 0.751 ± 0.062 | 0.719 ± 0.094
Cc1ccc2c(c1)c1c3n2CCNC3CCC1 (configuration not stated) [Pirlindole mesylate] | 0.976 ± 0.023 | 0.9961 ± 0.0071

SMILES | normalised cell viability (treatment time: 3 days) | normalised cell viability (treatment time: 6 days)
CCN(CC)CCNC(=O)c1cc(Cl)c(N)cc1OC [Metoclopramide monohydrochloride] | 0.975 ± 0.033 | 1.03 ± 0.0081
CN(C)C/C=C(/c1ccc(Br)cc1)c1cccnc1 [Zimelidine dihydrochloride monohydrate] | 1.08 ± 0.044 | 1.08 ± 0.056
CC(C)(CO)C(O)C(=O)NCCCO (configuration not stated) [Panthenol (D)] | 1.02 ± 0.013 | 1.01 ± 0.0086
CCOc1ccc2ccccc2c1C(=O)N[C@@H]1C(=O)N2[C@@H]1SC(C)(C)[C@@H]2C(=O)O [Nafcillin sodium salt monohydrate] | 1.03 ± 0.013 | 1.03 ± 0.057
Cn1cnc2c1c(=O)[nH]c(=O)n2C [Theobromine] | 0.856 ± 0.034 | 0.993 ± 0.02
C1CCC(C(CC2CCCCN2)C2CCCCC2)CC1 (configuration not stated) [Perhexiline maleate] | 0.135 ± 0.0029 | 0.125 ± 0.015
CC(C)NCC(O)COc1ccc(CCOCC2CC2)cc1 (configuration not stated) [Betaxolol hydrochloride] | 0.22 ± 0.0096 | 0.275 ± 0.015
CC(=O)[C@@]1(O)CC[C@H]2[C@@H]3C[C@H](C)C4=CC(=O)C=C[C@]4(C)[C@@]3(F)[C@@H](O)C[C@@]21C [Fluorometholone] | 0.791 ± 0.042 | 0.942 ± 0.065
CCc1nc(N)nc(N)c1-c1ccc(Cl)cc1 [Pyrimethamine] | 0.358 ± 0.011 | 0.374 ± 0.036
COc1cc(C(=O)NCc2ccc(OCCN(C)C)cc2)cc(OC)c1OC [Trimethobenzamide hydrochloride] | 0.966 ± 0.061 | 0.97 ± 0.044
C#CCN[C@@H]1CCc2ccccc21 [Rasagiline] | 1.01 ± 0.017 | 1.03 ± 0.065
COc1ccc(-c2cc(=S)ss2)cc1 [Anethole-trithione] | 0.941 ± 0.12 | 0.935 ± 0.05
O=C(O)c1cn(C2CC2)c2cc(N3CCNCC3)c(F)cc2c1=O [Ciprofloxacin hydrochloride hydrate] | 1.15 ± 0.079 | 1.04 ± 0.035
Cc1ccc(NC(=O)c2ccc(CN3CCN(C)CC3)cc2)cc1Nc1nccc(-c2cccnc2)n1 [Imatinib] | 1.04 ± 0.033 | 1.03 ± 0.13
CCOC(=O)O[C@]1(C(=O)OCCl)CC[C@H]2[C@@H]3CCC4=CC(=O)C=C[C@]4(C)[C@H]3[C@@H](O)C[C@@]21C [Loteprednol etabonate] | 0.996 ± 0.016 | 0.944 ± 0.073
Clc1ccc(C(Cn2ccnc2)OCc2ccsc2Cl)c(Cl)c1 (configuration not stated) [Tioconazole] | 1.11 ± 0.075 | 0.998 ± 0.04
CCCC1C(=O)N2C(N(C)C)=Nc3ccc(C)cc3N2C1=O (configuration not stated) [Azapropazone] | 1.08 ± 0.032 | 1.02 ± 0.032
c1cnc(N2CCN(Cc3ccc4c(c3)OCO4)CC2)nc1 [Piribedil hydrochloride] | 0.9831 ± 0.0057 | 0.854 ± 0.18
C[C@](N)(Cc1ccc(O)c(O)c1)C(=O)O [Methyldopa (L,-)] | 0.895 ± 0.0099 | 1.08 ± 0.093
C[C@H]1c2cccc(O)c2C(=O)C2=C(O)[C@]3(O)C(=O)C(C(N)=O)=C(O)[C@@H](N(C)C)[C@@H]3[C@@H](O)[C@@H]21 [Doxycycline hydrochloride] | 0.947 ± 0.025 | 0.982 ± 0.033

From the supplement of paper PMC6609913
